assay: soluble on expression in E. coli; label from the status in PepcDB or PDB records

| Sequence | soluble on expression in E. coli |
| --- | --- |
| MAHHHHHHMVRTKKSVPTHNPLSSEPANKTAPSRPSHKQVASSKASNNAATGKGARSQIPQKGMKKTTRIRRPHRYRPGVLALKEIRAYQATTQLLIPKIPFVRVVKEITQLFELPNEQLRYTPEALLALQTASEAYLVSLFEDAYLCSLHANRVTLMPKDIHLARRIRGRD | not soluble |
| MASTIKEVFAEIAAPVENSHGKVTVVGVGQVGMACAYSILQQNLANELCLVDVVADKLKGEMMDLQHGLAFTRHCTVKADTDYSITAGSKLCVVTAGARQREGETRLSLVQRNVEIFKGIIPQLVKYSPDTCILVVSNPVDVLTYVTWKLSGLPRERVFGSGTNLDSARFRFLLSEKLNIAPSSCHGWIIGEHGDSSVAVWSGVNVAGVTLHEIKPDIGEKTDNEHWEAEIHKKVVDSAYEIIKLKGYTSWAIGLSVAKIAQGIFSNSRNVFALSTNVKGFHGINDDVYLSLPVVLGSAGLTHVVKQQLTEAEVQKLHNSAKALLEVQNGIVM | not soluble |
| MHHHHHHSSGRENLYFQGLMEKYQKLEKVGEGTYGVVYKAKDSQGRIVALKRIRLDAEDEGIPSTAIREISLLKELHHPNIVSLIDVIHSERCLTLVFEFMEKDLKKVLDENKTGLQDSQIKIYLYQLLRGVAHCHQHRILHRDLKPQNLLINSDGALKLADFGLARAFGIPVRSYTHEVVTLWYRAPDVLMGSKKYSTSVDIWSIGCIFAEMITGKPLFPGVTDDDQLPKIFSILGTPNPREWPQVQELPLWKQRTFQVFEKKPWSSIIPGFCQEGIDLLSNMLCFDPNKRISARDAMNHPYFKDLDPQIMI | soluble |
| MLSPADKTNVKAAWGKVGAHAGEYGAEAFERMFLSFPTTKTYFPHFDLSHGSAQVKGQGKKVADALTNAVAHVDDMPNALSALSDLHAHKLRVDPVNFKLLSHCLLVTLAAHLPAEFTPAVHASLDKFLASVSTVLTSKYRGGGVLSPADKTNVKAAWGKVGAHAGEYGAEAFERMFLSFPTTKTYFPHFDLSHGSAQVKGQGKKVADALTNAVAHVDDMPNALSALSDLHAHKLRVDPVNFKLLSHCLLVTLAAHLPAEFTPAVHASLDKFLASVSTVLTSKYR | soluble |
| MPFSNSHNALKLRFPAEDEFPDLSAHNNHMAKVLTPELYAELRAKSTPSGFTLDDVIQTGVDNPGHPYIMTVGCVAGDEESYEVFKDLFDPIIEDRHGGYKPSDEHKTDLNPDNLQGGDDLDPNYVLSSRVRTGRSIRGFCLPPHCSRGERRAIEKLAVEALSSLDGDLAGRYYALKSMTEAEQQQLIDDHFLFDKPVSPLLLASGMARDWPDARGIWHNDNKTFLVWVNEEDHLRVISMQKGGNMKEVFTRFCTGLTQIETLFKSKDYEFMWNPHLGYILTCPSNLGTGLRAGVHIKLPNLGKHEKFSEVLKRLRLQKRGTGGVDTAAVGGVFDVSNADRLGFSEVELVQMVVDGVKLLIEMEQRLEQGQAIDDLMPAQK | soluble |
| MSNTTWSPTSWHSFKIEQHPTYKDKQELERVKKELHSYPPLVFAGEARNLQERLAQVIDNKAFLLQGGDCAESFSQFSANRIRDMFKVMMQMAIVLTFAGSIPIVKVGRIAGQFAKPRSNATEMLDNEEVLSYRGDIINGISKKEREPNPERMLKAYHQSVATLNLIRAFAQGGLADLEQVHRFNLDFVKNNDFGQKYQQIADRITQALGFMRACGVEIERTPILREVEFYTSHEALLLHYEEPLVRKDSLTNQFYDCSAHMLWIGERTRDPKGAHVEFLRGVCNPIGVKIGPNASVSEVLELCDVLNPRNIKGRLNLIVRMGSKMIKERLPKLLQGVLEEKRHILWSIDPMHGNTVKTSLGVKTRAFDSVLDEVKSFFEIHRAEGSLASGVHLEMTGENVTECIGGSQAITEEGLSCHYYTQCDPRLNATQALELAFLIADMLKKQHA | not soluble |
| VQLQQSGAELVRPGTSVKLSCKASGYSFTNYWMNWLRELVMTQSPLTLSVTIGQPASISCKSSQSLLYSNGKTYLNWLLQRPGQSPKRLIYLVSKLDSGDPDRFTGSGSGTDFTLKISRVEAEDLGIYYCVQGSHFPPTFGAGTKLELKRADAAPTVSIFPPSSEQLTSGGASVVCFLNNFYPKDINVKWKIDGSERQNGVLNSWTDQDSKDSTYSMSSTLTLTKDEYERHNSYTCEATHKTSTSPIVKSFNRN | soluble |
